Source: the supplement of paper PMC11417369
± gives the standard deviation of the averaged measurements. This is one part of the list.

What follows are sequences tested on PfAP2-LT AP2 domain (GST-tagged) (assay: gcPBM binding intensity (ln(normalized median fluorescence intensity)); higher = stronger DNA binding).
In short: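 GST-tagged P. falciparum DNA-binding domains produced in E. coli were incubated for 1 h on an Agilent 4 × 180k array of primer-extended double-stranded 36-bp intergenic genomic probes with negative controls. Binding intensity is the highest Masliner-normalised natural-log median intensity across replicate spots of either probe orientation, with bound protein detected by Alexa488 anti-GST antibody at 488 nm.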

| Sequence | gcPBM binding intensity (ln) |
| --- | --- |
| GATATCAAATATAAATGTACAAATTATATATACATA [XGTACX_site3228] | 8.8 ± 0.31 |
| TTCTTATTTATTTTCTTCTCCTTCCTCAAATTTTTT [GTGCAC_negctrl_site592] | 8.61 ± 0.61 |
| GAGAAAGATATATACACACACATAAATATGTACATA [CACACA_site6975] | 9.59 ± 0.37 |
| ATACAATAAAATAAGTTTGAATAAAATTAAATATAT [CACACA_negctrl_site877] | 8.64 ± 0.45 |
| TCCTTTTTTAAAAGTTGTACATTATTGTTATTTGTT [XGTACX_site4686] | 8.82 ± 0.52 |
| TTCCTCTTAATATGTGCACACTAAATTATAACCTAA [CACACA_site5751] | 8.88 ± 0.38 |
| GAAGGAAATAATAGTAGTACAAATGGTAAGAAATAT [XGTACX_site5845] | 9.31 ± 0.59 |
| TTTACAATATAAAATACACACACACTAACATATATT [CACACA_site9231] | 9.59 ± 0.028 |
| TATATAAATGTTATCACACACTCACGTTTGACAAAA [CACACA_site6468] | 8.83 ± 0.45 |
| AATATAATACAATATTGTACATAATATAAATTAAAA [XGTACX_site4064] | 8.83 ± 0.55 |
| ATTATATTTATGTTGGTGCATTATACATGAAATTTA | 8.68 ± 0.4 |
| ATGTCATAAATGTACGCACACATACATAAACATATA [CACACA_site4530] | 9.31 ± 0.28 |
| TTCATTTTAATTTCCAGTACACATATATATACATAT [XGTACX_site558] | 8.96 ± 0.5 |
| ATTTATTTCTATAATACACACAAATATCTTAATTAA [CACACA_site7801] | 8.69 ± 0.52 |
| GGTAATTATTTTGGTTGTACTCAAATATATAATATT [XGTACX_site291] | 8.89 ± 0.23 |
| AAACATAAAGAAAAAAAAAATATATATTTATTTATT [GTGCAC_negctrl_site357] | 8.46 ± 0.52 |
| TATATGTTATATTGGACACACACAATAAACATTATG [CACACA_site8480] | 9.21 ± 0.38 |
| ATATATTAACAAAAGGTGCTTTTGGCAAAGTATAAT | 8.95 ± 0.44 |
| ATAAAAATGGTGTTAACACACACATATATATATATA [CACACA_site8089] | 9.64 ± 0.17 |
| TTATTTAAATATTGATGTACTCTCCTTATTATAATA [XGTACX_site1240] | 8.57 ± 0.52 |
| TTAATTAAAATTTATACATGCATAAAAGAAATACAC [TGCATGCA_site537] | 8.87 ± 0.46 |
| ATTACATGTTACTTAACACACATCTGGTGAAATAAT [CACACA_site171] | 8.93 ± 0.34 |
| ATTTTTTTCTTTTCTTTTTTCTTTTTTTTTTTTGGT [CACACA_negctrl_site1146] | 8.61 ± 0.7 |
| GTAATGAAACATTGCACACATATAATAATATAATAT [CACACA_site1422] | 9.26 ± 0.35 |
| TTGTATACATAAAATGGTACAGAATATATAATTCTA [XGTACX_site7236] | 8.63 ± 0.4 |
